Results published in publication PMC4336329 (PLoS ONE, 2015).
Screen size: about 310,000 compounds; about 2,200 (0.71%) showed an effect of 50% or more. The effect is printed as a negative number. Some of the results follow.

Target: human ether-à-go-go-related gene (hERG) potassium channel (human, UniProt Q12809)
Test: primary screen, population patch clamp on CHO cells stably expressing hERG

Chain of human ether-à-go-go-related gene (hERG) potassium channel (Q12809 whole entry, looked up): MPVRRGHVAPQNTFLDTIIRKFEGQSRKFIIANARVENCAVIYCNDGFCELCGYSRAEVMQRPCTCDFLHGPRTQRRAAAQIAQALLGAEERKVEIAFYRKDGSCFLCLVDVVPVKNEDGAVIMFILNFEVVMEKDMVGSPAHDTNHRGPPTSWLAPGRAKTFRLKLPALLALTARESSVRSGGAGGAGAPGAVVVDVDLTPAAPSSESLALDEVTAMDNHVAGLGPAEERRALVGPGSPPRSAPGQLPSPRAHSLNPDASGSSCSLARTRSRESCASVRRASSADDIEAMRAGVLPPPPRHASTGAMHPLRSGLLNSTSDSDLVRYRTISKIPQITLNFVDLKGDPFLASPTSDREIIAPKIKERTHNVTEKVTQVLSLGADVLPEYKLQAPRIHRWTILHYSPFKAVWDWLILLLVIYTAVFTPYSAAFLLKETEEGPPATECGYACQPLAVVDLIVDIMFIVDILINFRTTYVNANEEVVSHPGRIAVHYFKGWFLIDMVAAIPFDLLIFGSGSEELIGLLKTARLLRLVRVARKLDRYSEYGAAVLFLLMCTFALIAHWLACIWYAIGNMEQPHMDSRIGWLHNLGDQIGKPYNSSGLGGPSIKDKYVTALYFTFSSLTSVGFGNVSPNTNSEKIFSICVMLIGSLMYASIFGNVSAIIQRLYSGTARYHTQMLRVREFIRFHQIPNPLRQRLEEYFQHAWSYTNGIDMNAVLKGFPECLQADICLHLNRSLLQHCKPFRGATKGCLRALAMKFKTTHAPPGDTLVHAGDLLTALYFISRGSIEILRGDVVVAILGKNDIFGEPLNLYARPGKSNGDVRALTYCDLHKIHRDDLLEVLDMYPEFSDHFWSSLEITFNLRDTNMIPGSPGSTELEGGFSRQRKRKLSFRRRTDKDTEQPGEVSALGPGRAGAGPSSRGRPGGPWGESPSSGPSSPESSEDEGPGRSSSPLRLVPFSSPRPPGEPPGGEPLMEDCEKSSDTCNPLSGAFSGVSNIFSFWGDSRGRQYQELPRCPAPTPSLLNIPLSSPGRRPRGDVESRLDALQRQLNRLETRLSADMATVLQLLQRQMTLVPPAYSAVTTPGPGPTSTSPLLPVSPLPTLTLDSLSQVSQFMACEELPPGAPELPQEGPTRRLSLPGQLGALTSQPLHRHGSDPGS

Row | SMILES | hERG current change (%, negative = inhibition) at 1uM [%]
1 | Cc1nc2ccccc2n1Cc1ccccc1Br | 4.91
2 | C=CCn1c(SCC(=O)NCc2ccco2)nnc1C1CCCCC1 | 9.88
3 | NC(=S)N/N=C1\CC(c2ccc3c(c2)OCCCO3)Oc2ccc(F)cc21 (centres unmarked) | 11.4
4 | COc1cc(C2C(C(=O)c3cc4ccccc4o3)=C(O)C(=O)N2c2cc(C)on2)cc(OC)c1OC (centres unmarked) | 15.4
5 | O=C(Nc1cc(Cl)ccc1O)C1CC(c2ccccc2O)=NO1 (centres unmarked) | 8.4
6 | Cc1ccc(-c2cc(C(=O)N/N=C/c3ccccc3O)n[nH]2)o1 | 12.8
7 | CN1C(=O)S/C(=C\c2ccc(-n3cncn3)cc2)C1=O | 6.08
8 | COC(=O)C1CCN(C(=O)c2ccc(NC(C)=O)cc2)CC1 | 2.37
9 | COCCNC(=O)C(c1cccc(OC)c1)N(C(=O)Cn1nnc2ccccc21)c1cccnc1 (centres unmarked) | 13.5
10 | CCN(CC)S(=O)(=O)c1ccc(Cl)c(C(=O)Nc2nncs2)c1 | 15.1
11 | CN(C)S(=O)(=O)Nc1ccc(Br)cc1F | 10.1
12 | Cc1ccc(C(=O)Nc2cnc3sc(C)nn3c2=O)cc1 | 11.4
13 | Cc1c(CCC(=O)O)c(=O)oc2cc3occ(-c4ccc(F)cc4)c3cc12 | 9.48
14 | C=C(C)C(=O)Nc1cccc(C2=NOC3(C2)C[C@@H](C(N)=O)N(C(=O)c2ccc(OC)cc2)C3)c1 (some centres unmarked) | 7.59
15 | CSc1nc(SCC(=O)NCc2ccco2)c2c3c(sc2n1)CN(C)CC3 | 4.1
16 | O=C(CCc1nnc(-c2ccccc2)o1)c1ccc(Cl)cc1 | 15.3
17 | C[C@H](CCC(=O)O)[C@H]1CC[C@H]2[C@@H]3CC[C@@H]4C[C@H](O)CC[C@]4(C)[C@H]3C[C@H](O)[C@]12C | 14.3
18 | Cc1ccc(CN2C(=O)N/C(=C/c3ccc4c(c3)n(C)c(=O)n4C)C2=O)cc1 | 2.43
19 | Cc1cccc(N(CC(=O)N2CCCC2)S(C)(=O)=O)c1 | 10.2
20 | CCc1nn(CC(=O)NCCCN2CCOCC2)c(=O)c2cc3cc(F)ccc3n12 | 12.2
21 | CC(=O)Nc1ccc(N=Cc2c(O)c3ccccc3oc2=O)cc1 | 15.7
22 | Cc1cc(NC(=O)CSc2ccccc2)no1 | 14.2
23 | Cc1cc(C(=O)OCC(=O)Nc2cc(Cl)ccc2C)c(C)o1 | 8.83

Row | SMILES | hERG current change (%, negative = inhibition) at 1uM [%]
24 | COc1ccc(S(=O)(=O)N2CCC(C(=O)NCc3ccc(C)cc3)CC2)cc1 | 8.1
25 | CC(C)CN1CCC(=O)N([C@H](CSc2ccc(Br)cc2)c2ccccc2)CC1 | -21.5
26 | CC1(C)C(=O)Nc2ccccc2N1C(=O)COC(=O)c1ccc(Cl)c(S(=O)(=O)NCc2ccccc2)c1 | 6.97
27 | COCc1cc(=O)[nH]c(-c2ccccc2OC(F)(F)F)n1 | -16.7
28 | O=C(COc1cc(Cl)c(Cl)cc1Cl)NCCN1CCOCC1 | 5.99
29 | Cc1ccc(NC(=O)NC2CCCCC2)cc1Cl | 13.4
30 | Cc1cc(Br)cc(Cl)c1OC(=O)c1cnccn1 | 15.2
31 | Cc1cccc(C)c1-n1c(C)cc(/C=C2\C(=O)NN(c3ccccc3)C2=O)c1C | 1.9
32 | Cc1c(CC(=O)NCCCC(=O)O)c(=O)oc2cc3oc4c(c3cc12)CCCC4 | 8.61
33 | CC(=O)c1cccc(NC(=O)CSCc2ccc(Br)cc2)c1 | 11.2
34 | COC(=O)c1c(NC(=O)c2cccnc2Cl)sc(C(=O)N(C)C)c1C | 5.82
35 | CCOC(=O)C1CCCN(C(=O)c2cc(S(=O)(=O)N3CCCCCC3)ccc2OC)C1 (centres unmarked) | 8.83
36 | Cn1cccc1/C=N/N1CCN(Cc2cccc3ccccc23)CC1 | 12.2
37 | C=C(C)Cn1c(SCC(=O)O)nnc1-c1ccccc1 | 6.79
38 | O=C(N/N=C/c1cccnc1)c1ccc([N+](=O)[O-])cc1Cl | 2.33
39 | CC#CC(=O)N1CCC(Oc2cccc(C(=O)NCc3ccccn3)c2)CC1 | 12.9
40 | Cn1c([N+](=O)[O-])cnc1COC(N)=O | 16.2
41 | Cc1cccc(OCCCC(=O)Nc2nccs2)c1 | 2.81
42 | O=C(NCc1ccccn1)C(=O)NN=C1CCCCCCCCCCC1 | 6.18
43 | CCCCn1nc2cc(C(=O)NC3CCc4ccccc43)ccc2c1OCC (centres unmarked) | 8.76
44 | CCOn1c(=O)c(=O)n(O)c2ccccc21 | 24.4
45 | CCc1ccc(NC(=O)CCc2c(C)nn(-c3ccc(N4CCCCC4)nn3)c2C)cc1 | 4.74
46 | Cc1cccc(C)c1NC(=O)COc1ccc2c(C)c(Cc3ccccc3)c(=O)oc2c1C | 9.84

Row | SMILES | hERG current change (%, negative = inhibition) at 1uM [%]
47 | CC(=O)NC(Cc1ccccc1)C(=O)NC1CCN(C(=O)c2ccc([N+](=O)[O-])cc2)CC1 (centres unmarked) | 6.04
48 | CCOC(=O)c1cnc(Nc2nc3ccccc3o2)nc1C | -2.13
49 | CCCCNC1=C(Br)C(=O)CC(C)(C)C1 | 10.6
50 | CC(=O)Oc1ccc2nc(-c3cccs3)oc(=O)c2c1 | 6.01
51 | COc1ccc(CCC(C)NCc2cc(OC)cc(OC)c2)cc1 (centres unmarked) | 3.19
52 | COc1ccccc1C1C(C(C)=O)=C(O)C(=O)N1CCc1ccccc1 (centres unmarked) | 18.8
53 | O=[N+]([O-])c1cccc(N(CC(O)CN2CCCC2)S(=O)(=O)c2ccccc2)c1 (centres unmarked) | -25.9
54 | Cc1csc(=O)n1CC(=O)OCc1nnc(-c2ccc(Cl)cc2)o1 | 15.6
55 | COc1cc(NS(=O)(=O)c2ccc(NC(=S)NC(=O)c3ccc(F)c(F)c3)cc2)nc(OC)n1 | 13.7
56 | CC(C(=O)Nc1ccccc1)N1C(=O)c2ccccc2C1=O (centres unmarked) | 12.8
57 | O=C(NCc1ccncc1)C(=O)NCc1ccco1 | 4.61
58 | CC1Cc2ccccc2N1CC(=O)Nc1ccc2c(c1)OC(F)(F)O2 (centres unmarked) | 9.18
59 | COC(=O)c1ccc2nc(NC(=O)C(C)(C)C)sc2c1 | 0.391
60 | O=C(CO/N=C/c1ccccc1O)N1CCc2ccccc21 | 4.34
61 | COc1ccc(C(OC(=O)c2ccco2)C(=O)NCC2CCCO2)cc1 (centres unmarked) | 12.7
62 | COc1ccc(-c2nnc(CSc3nc4ccccc4c(=O)n3CC3CCCO3)o2)cc1OC (centres unmarked) | -5.79
63 | CCCCCCC1C(C#N)=C(N)OC2=C1C(=O)CCC2 (centres unmarked) | 6.79
64 | COn1c(SC2CCCCC2)nc2ccccc2c1=O | 3.77
65 | CC(=O)c1c(C)[nH]c(C(=O)OCC(=O)Nc2cccc(S(=O)(=O)N(C)C)c2)c1C | 11.3
66 | Cc1cc(SCC(=O)OCC(=O)N2CCN(C(=O)c3ccco3)CC2)c(C)cc1Br | 6.43
67 | CCOc1ccccc1Nc1nnc(SC(C)C(=O)Nc2nc(-c3ccccc3)cs2)s1 (centres unmarked) | 8.02
68 | Cc1cc(C(=O)COC(=O)c2ccc3c(c2)NC(=O)CS3)c(C)n1CC1CCCO1 (centres unmarked) | 12.9
69 | COC(=O)c1ccc2c(=O)n3c(nc2c1)SCC(c1ccccc1)=N3 | 7.63

Row | SMILES | hERG current change (%, negative = inhibition) at 1uM [%]
70 | NNc1nc(-c2ccccc2)c2ccccc2n1 | 8.58
71 | C=CCn1nc2ccccc2c1OC | 13.2
72 | O=S(=O)(NCCc1ccccc1)c1ccc(S(=O)(=O)N2CCCCC2)cc1 | 14.4
73 | O=C(O)c1c[nH]c(=O)c2ccccc12 | 15.4
74 | COc1ccccc1NC(=O)c1cc(S(=O)(=O)N2CCC3(CC2)OCCO3)ccc1F | -5.88
75 | CCOC(=O)c1cc2sccc2n1CC(=O)Nc1ccc2c(c1)OCCO2 | 18
76 | CCCSc1cc(N2CCN(C)CC2)nc(-c2ccc(OC)cc2)n1.Cl | 6.13
77 | OC1OC[C@@H](O)[C@H](O)[C@H]1O (some centres unmarked) | 20.9
78 | O=S1(=O)N=C(Oc2ccccc2)c2ccccc21 | 5.47
79 | COc1ccc2nc(SCC(=O)NC3CC3)c(C#N)cc2c1 | 13.2
80 | O=C(CN1CCN(S(=O)(=O)c2ccc(Br)cc2)CC1)Nc1ccccc1C(=O)c1ccccc1 | 6.46
81 | CCOc1ccc(S(=O)(=O)NCCC(=O)NC(C)CCc2ccccc2)cc1 (centres unmarked) | 12.2
82 | O=C1Nc2ccccc2C1=Nc1cccc([N+](=O)[O-])c1 | 13.6
83 | Nc1cc(=O)[nH]c(SCC(=O)Nc2ccc(S(=O)(=O)N3CCOCC3)cc2)n1 | -5.06
84 | O=C(CSc1nnc(NC(=O)c2ccco2)s1)Nc1ccccc1F | 11
85 | CC1(C)C2CCC1(C)C(NCC(O)COc1ccc(C#N)cc1)C2.O=C(O)C(=O)O (centres unmarked) | -16.1
86 | Cc1cccc(N2CC(C(=O)Nc3nnc(SCC(=O)N4CCOCC4)s3)CC2=O)c1 (centres unmarked) | 10.1
87 | C=CCOc1cccc(C(=O)Nc2ncn[nH]2)c1 | 12.9
88 | CCC(C)C(NC(=O)C1CCC(C)CC1)C(=O)NCCCN1CCCCC1CC (centres unmarked) | 5.32
89 | Cc1cc(C)n(-c2nc3ccccc3nc2N2CCN(S(=O)(=O)c3ccc4ccccc4c3)CC2)n1 | -1.48
